Experimental data as given in PMC4336329 (PLoS ONE, 2015).
The campaign covered roughly 310,000 compounds. About 2,200 (0.71%) showed an effect of 50% or more. The effect is printed as a negative number. This is one part of the list.

Biological target: human ether-à-go-go-related gene (hERG) potassium channel (human, UniProt Q12809)
Assay: primary screen, population patch clamp on CHO cells stably expressing hERG

Sequence of human ether-à-go-go-related gene (hERG) potassium channel (Q12809 whole entry, looked up): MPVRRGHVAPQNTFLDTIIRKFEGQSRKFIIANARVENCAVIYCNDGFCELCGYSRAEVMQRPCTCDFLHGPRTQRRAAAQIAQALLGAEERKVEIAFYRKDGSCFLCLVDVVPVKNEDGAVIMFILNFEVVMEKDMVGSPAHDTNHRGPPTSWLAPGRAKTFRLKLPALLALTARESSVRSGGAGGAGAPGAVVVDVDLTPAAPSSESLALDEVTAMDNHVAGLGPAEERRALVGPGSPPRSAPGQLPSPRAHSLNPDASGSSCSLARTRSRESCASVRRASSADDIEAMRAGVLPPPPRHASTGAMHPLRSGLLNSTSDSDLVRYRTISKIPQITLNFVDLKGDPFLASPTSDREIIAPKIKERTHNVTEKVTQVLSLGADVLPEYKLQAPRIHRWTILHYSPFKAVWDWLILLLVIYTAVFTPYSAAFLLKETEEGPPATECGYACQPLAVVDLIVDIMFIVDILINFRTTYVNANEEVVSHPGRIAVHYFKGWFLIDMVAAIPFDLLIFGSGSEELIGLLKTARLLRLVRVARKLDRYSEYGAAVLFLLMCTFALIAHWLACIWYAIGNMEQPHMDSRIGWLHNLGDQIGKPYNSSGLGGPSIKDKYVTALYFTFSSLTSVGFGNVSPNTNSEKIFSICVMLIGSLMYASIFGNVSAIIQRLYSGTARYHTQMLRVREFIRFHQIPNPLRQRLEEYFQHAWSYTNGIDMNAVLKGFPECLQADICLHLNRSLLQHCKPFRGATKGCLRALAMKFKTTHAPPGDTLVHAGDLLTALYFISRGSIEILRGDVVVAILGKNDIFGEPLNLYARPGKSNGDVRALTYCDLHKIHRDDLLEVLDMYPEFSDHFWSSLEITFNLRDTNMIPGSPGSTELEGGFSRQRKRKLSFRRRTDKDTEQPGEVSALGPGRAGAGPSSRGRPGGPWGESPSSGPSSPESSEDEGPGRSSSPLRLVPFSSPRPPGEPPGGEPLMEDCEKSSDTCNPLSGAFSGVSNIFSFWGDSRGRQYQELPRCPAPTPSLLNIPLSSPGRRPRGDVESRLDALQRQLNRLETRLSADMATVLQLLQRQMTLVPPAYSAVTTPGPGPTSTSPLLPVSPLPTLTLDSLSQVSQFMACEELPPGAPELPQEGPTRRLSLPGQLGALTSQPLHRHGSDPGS

Compound	hERG current change (%, negative = inhibition) at 1uM
COc1ccc(-c2nnc(SCC(=O)NCC3CCCO3)n2C)cc1 (stereo not drawn)	19.8%
N#Cc1cccnc1N1CCC(C(N)=O)CC1	14%
Cc1ccc(S(=O)(=O)N(C)C)cc1NC(=O)c1ccc(OC(F)(F)F)cc1	-11.9%
COc1cccc(NC(=S)NCc2ccc(F)cc2)c1	8.29%
Cc1cccc(NC(=O)C2CCCN(c3nc(C)cc(C)n3)C2)c1 (stereo not drawn)	6.68%
O=[N+]([O-])c1ccc(NCCO)c2ncccc12	10.7%
O=C(NCc1ccc2c(c1)OCO2)C1CCCN1S(=O)(=O)c1ccc(F)cc1 (stereo not drawn)	3.85%
CC(C)(C)NC(=O)NC(=O)COC(=O)CNS(=O)(=O)c1ccc(Br)cc1Cl	25.9%
COC(=O)C(C)Oc1ccc(-c2nccc(-c3ccc(F)cc3)n2)cc1 (stereo not drawn)	17.4%
COC(=O)c1ccc(/C=C2\CCn3c2nc2cc(C(=O)O)ccc2c3=O)cc1	11%
COc1ccc(NC(=O)CSc2nc3[nH]c(=O)[nH]c(=O)c3s2)cc1OC	17.6%
O=C(Cn1cc([N+](=O)[O-])cn1)Nc1nccs1	12.8%
O=C(c1c[nH]c(C(=O)C(Cl)(Cl)Cl)c1)c1c(F)cccc1F	3.92%
C#CCOc1c(Cl)cc(/C=C2/C(=O)ON=C2C)cc1OCC	8.85%
COc1ccc(S(=O)(=O)N2CCc3ccccc32)cc1C(=O)Nc1ccc(C(N)=O)cc1	10.8%
C=Cn1ccnc1P(=S)(c1ccn(C)c1)c1nccn1C=C	14.1%
O=C(CCN1C(=O)C2C3CCC(C3)C2C1=O)Nc1ccc([N+](=O)[O-])cc1 (stereo not drawn)	-8.07%
CSc1ccc(Cl)c(C(=O)OCC(=O)NCc2ccco2)c1	14.7%
CC(C)(C)c1ccc(C(=O)Nc2cccnc2)cc1	5.43%

Compound	hERG current change (%, negative = inhibition) at 1uM
COCCOC(=O)C1=C(C)NC(=O)NC1c1ccc(-c2ccc(F)cc2)o1 (stereo not drawn)	0.0771%
Cc1cc(C)nc(N/N=C/c2cc(Br)ccc2O)n1	17.8%
Cc1ccnc(NC(=O)c2cc(-c3ccc(Cl)s3)nc3ccccc23)c1	1.34%
Cc1cc(C(F)(F)F)n2nc(-c3sccc3-n3cccc3)cc2n1	3.43%
O=C(O)Cn1c(-c2ccccc2)cc2ccccc21	16.6%
CC(=O)c1ccc(-c2ccc(C(=O)NCC(c3ccc(F)cc3)N3CCOCC3)o2)cc1 (stereo not drawn)	4.28%
Cc1ccc(C(=O)NCCN2C3=NC[C@H](C)N3C[C@H]2Cc2ccc(O)cc2)cc1Br	9.94%
Cc1onc(-c2ccccc2)c1C(=O)OCCOc1ccc([N+](=O)[O-])cc1[N+](=O)[O-]	9.89%
NC(=O)C1CCN(CCC(=O)Nc2cccc(Cl)c2)CC1	9.38%
CC(C)(C)NS(=O)(=O)c1ccc2[nH]c3c(c2c1)CCCCC3	11.4%
C1=C(c2c[nH]c3ccccc23)CCN(Cc2ccccc2)C1	5.82%
O=C(CNC(=O)c1ccc(Br)o1)NC1CCCCC1	17%
CCOC(=O)C1CCN(C(=O)CCCN2C(=O)c3ccccc3C2=O)CC1	0.389%
CCOC(=O)CN(C(=O)COc1nc(-c2ccccc2)cc(C)c1C#N)c1ccccc1	13.4%
COc1ccc(Cl)cc1NC(=O)NC(C)C	18.1%
O=C(O)c1cccc2cccnc12	4.06%
Cc1c(NC(=O)COC(=O)Cc2ccc(Cl)cc2)c(=O)n(-c2ccccc2)n1C	7.54%
CCOC(=O)C(Cc1c(F)cccc1Cl)c1ccno1 (stereo not drawn)	12.5%
CCCc1ccc2oc(C(=O)N(Cc3nccn3C)C(C)C)c(C)c2c1	8.08%

Compound	hERG current change (%, negative = inhibition) at 1uM
C#CCOCCOCCOCCNc1nc(N2CCOCC2)nc(N2CCN(C(=O)Cn3cc(CCC[NH+]=C(N)N)nn3)CC2)n1.[Cl-]	17.5%
O=[N+]([O-])c1ccc2nn(Cc3ccccc3)cc2c1	10.5%
Cc1ccc(O)c(C(=O)CC(=O)c2ccc(Cl)cc2)c1	17.2%
COc1cccc(N2CCN(c3nc(-c4ccccc4C)cc(=O)[nH]3)CC2)c1	4.99%
C/C(N)=C(/C#N)C(=O)CSc1nc2ccccc2[nH]1	5.05%
CCCc1cc(=O)oc2cc(C)cc(OC(C)C(=O)NCCCN3CCOCC3)c12 (stereo not drawn)	3.98%
O=c1[nH]c2c(s1)C(c1ccco1)C1C3CCC(C3)C1S2 (stereo not drawn)	11.4%
CC(=NCCN1CCOCC1)C1=C(O)c2ccccc2C1=O	7.92%
O=[N+]([O-])c1ccc(Sc2cccc3cccnc23)c([N+](=O)[O-])c1	3.58%
Cc1c(NC(=O)c2cc(-c3ccc(Cl)cc3)on2)c(=O)n(-c2ccccc2)n1C	-14.7%
CCOC(=O)C1=C(Nc2ccccc2)CC(C)(O)C(C(=O)OCC)C1c1ccc(Cl)cc1 (stereo not drawn)	17.5%
O=C(NCC1CCCO1)c1cc2ccccc2oc1=O (stereo not drawn)	7.63%
C=C(C)CNC(=S)Nc1ccc(S(=O)(=O)Nc2cnc3ccccc3n2)cc1	5.66%
Cc1cccc(Nc2c([N+](=O)[O-])ccc3nonc23)c1	14%
CCOc1ccc(Nc2nc(N)nc(CN(C)C3CCCCC3)n2)cc1	-58.2%
Cl.OCCN1CCN(CC(O)COCC2COc3ccccc3O2)CC1 (stereo not drawn)	21.1%
Cc1c(C(=O)NC2CC(=O)N(c3ccc4c(c3)OCCO4)C2)cccc1[N+](=O)[O-] (stereo not drawn)	13.6%
Cl.Nc1ccc(N2CCN(CCCCN3C(=O)C4CCCN4C3=O)CC2)cc1.O (stereo not drawn)	18.3%
CCOC(=O)c1c(N)c(C#N)c2n1CCCC2	8.06%
